In PubChem BioAssay AID1259400 (National Center for Advancing Translational Sciences (NCATS), 2018):
Several values for one entry are separate records, joined by “and”; a condition that tells them apart may be missing. Identical values can stand only once. Screen size: about 350,000 compounds; about 2,100 (0.6%) were called active. Inconclusive results, whose numbers are uncertain, are shown with a selection of clear calls.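 How the source made its calls: active means activity change of -60% or lower, but not beyond a set lower limit; inconclusive means change between -60% and -40%, or beyond the set limit; inactive means change above -40%.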

Target: Relaxin receptor 1 (Homo sapiens) (UniProt Q9HBX9)
Assay: qHTS Assay for Antagonists of the Relaxin Receptor RXFP1
Conditions: HEK293-RXFP1, relaxin-stimulated cAMP HTRF, 30 min; at 57.5 µM; stronger effect = lower value
On the % scale 0 is the no-effect control and ±100 the full control effect.

Chain of UniProt Q9HBX9 (Q9HBX9 whole entry, looked up): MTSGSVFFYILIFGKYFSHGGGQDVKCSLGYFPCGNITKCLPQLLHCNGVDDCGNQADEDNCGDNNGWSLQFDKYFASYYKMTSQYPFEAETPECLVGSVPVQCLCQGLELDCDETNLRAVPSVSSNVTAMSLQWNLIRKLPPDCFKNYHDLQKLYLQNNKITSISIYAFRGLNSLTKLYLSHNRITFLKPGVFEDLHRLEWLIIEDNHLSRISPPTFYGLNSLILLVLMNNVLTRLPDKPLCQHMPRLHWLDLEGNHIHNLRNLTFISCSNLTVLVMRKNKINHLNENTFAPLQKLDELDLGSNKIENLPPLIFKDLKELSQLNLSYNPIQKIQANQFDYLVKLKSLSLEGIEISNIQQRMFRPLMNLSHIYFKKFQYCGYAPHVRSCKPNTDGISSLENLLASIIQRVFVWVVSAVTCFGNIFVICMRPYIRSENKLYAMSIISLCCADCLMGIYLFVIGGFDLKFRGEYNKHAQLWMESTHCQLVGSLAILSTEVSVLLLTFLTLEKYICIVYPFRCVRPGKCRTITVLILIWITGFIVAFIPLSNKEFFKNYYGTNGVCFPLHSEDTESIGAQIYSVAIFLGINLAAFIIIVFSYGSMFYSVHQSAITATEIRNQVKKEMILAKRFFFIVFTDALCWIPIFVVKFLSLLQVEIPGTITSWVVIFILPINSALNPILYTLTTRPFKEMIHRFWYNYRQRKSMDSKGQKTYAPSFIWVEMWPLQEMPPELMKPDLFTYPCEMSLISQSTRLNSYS

Row | Structure (SMILES) | activity change, negative = inhibition
1 | Cc1cc(C)n(S(=O)(=O)c2cc(Cl)ccc2Cl)n1 | inactive: 0.541%
2 | C[N+](C)(CCOc1ccccc1)Cc1cccs1 (tested in a mixture with another compound) | inactive: 10.6%
3 | Cc1c2c(nc3ccccc13)CCC(C(C)(C)C)C2 (stereo not drawn) | inconclusive: -45.1%
4 | Cc1ccc(-n2c(O)c(/C=N/Nc3ccc(S(=O)(=O)N4CCOCC4)cc3[N+](=O)[O-])c3ccccc3c2=O)c(C)c1 | active: -93.5%
5 | O=C(Cc1ccccc1)Nc1cccc(-c2nc3cccnc3s2)c1 | inactive: -9.48%
6 | CCc1ccc(N2CC(C(=O)N/N=C/c3cc([N+](=O)[O-])ccc3O)CC2=O)cc1 (stereo not drawn) | inconclusive: -59.5%
7 | Cc1cccc(N(C)C(=S)Oc2ccc3c(c2)CCC3)c1 | active: -62.8%
8 | O=C(N/N=C/c1ccc(-c2ccccc2)o1)c1ccccc1O | active: -85.3%
9 | COc1ccc(/C=N/NC(=S)Nc2cc(C(F)(F)F)ccc2Cl)cc1 | inconclusive: -50.8%
10 | CN1CCN(CCCN2c3ccccc3Sc3ccc(C(F)(F)F)cc32)CC1 | inconclusive: -55.1% and inconclusive: -48.2% and active: -65%
11 | O=C(NCc1ccccn1)Nc1cccc(NC(=O)NCc2ccccn2)c1 | inactive: -5.53%
12 | CCN(C(=O)CSc1nnc(Nc2ccccc2C)s1)C1CCS(=O)(=O)C1 (stereo not drawn) | inactive: -1.16%
13 | CC(=O)N1CCc2ccc(S(=O)(=O)Nc3ccccc3Cl)cc21 | inactive: 2.56%
14 | CCc1ccc(NC(=O)CSc2nc3ccccc3c(=O)n2CCCN2CCC(C)CC2)cc1 | inactive: -10.9%
15 | CCNc1nc(C23CC4CC(CC(C4)C2)C3)cs1 | inconclusive: -48.4%
16 | CCN1C(=O)C(CC(=O)Nc2ccc(F)cc2)N(CCCN2CCN(c3ccc(F)cc3)CC2)C1=S (stereo not drawn) | inconclusive: -44.5%
17 | CC(C)N(Cc1ccccc1)C(=O)C1CCCN(c2ncnc3c2nc2n3CCCCC2)C1 (stereo not drawn) | inactive: -0.282%
18 | CCCc1ccccc1OCCNS(=O)(=O)c1cc2c(cc1C)OCC(=O)N2 | active: -61.5%
19 | N#Cc1c2c(c(NCc3cccnc3)n3c1nc1ccccc13)CCC2 | inactive: -3.55%
20 | Cc1cc(C)cc(N2CCn3c2nc2c3c(=O)n(CCc3ccccc3)c(=O)n2C)c1 | inactive: -8.57%
21 | CSc1nnc(C)c(=O)n1COC(=O)COc1ccccc1F | inactive: -10.6%
22 | COc1ccc(C=C2NC(=S)NC2=O)cc1 | inconclusive: -51.3%
23 | COc1ccc(Br)cc1CNC(=O)c1ccc2c(c1)nc1n2CCCCC1 | inconclusive: -43.5%
